In all, about 270,000 compounds went through this assay and about 5,800 (2.1%) were called active. The shares of active, inactive and inconclusive entries below differ from those in the screen. Calls come from the whole dose curve; as a rule, active = well fitted inhibition curve with a large enough effect; inconclusive = small, poorly fitted or top-dose-only effect; inactive = flat fitted curve, though single readings scatter. A potency beside an inconclusive call is a rough fit, not a confirmed value.
The compounds below were run against Microtubule-associated protein tau (Homo sapiens) (UniProt P10636) (assay: qHTS for Inhibitors of Tau Fibril Formation, Thioflavin T Binding). Settings: recombinant tau K18 P301L, heparin-induced fibrillization, ThT fluorescence; series mostly up to 57.4 µM.
UniProt P10636, sequence (P10636 whole entry, looked up): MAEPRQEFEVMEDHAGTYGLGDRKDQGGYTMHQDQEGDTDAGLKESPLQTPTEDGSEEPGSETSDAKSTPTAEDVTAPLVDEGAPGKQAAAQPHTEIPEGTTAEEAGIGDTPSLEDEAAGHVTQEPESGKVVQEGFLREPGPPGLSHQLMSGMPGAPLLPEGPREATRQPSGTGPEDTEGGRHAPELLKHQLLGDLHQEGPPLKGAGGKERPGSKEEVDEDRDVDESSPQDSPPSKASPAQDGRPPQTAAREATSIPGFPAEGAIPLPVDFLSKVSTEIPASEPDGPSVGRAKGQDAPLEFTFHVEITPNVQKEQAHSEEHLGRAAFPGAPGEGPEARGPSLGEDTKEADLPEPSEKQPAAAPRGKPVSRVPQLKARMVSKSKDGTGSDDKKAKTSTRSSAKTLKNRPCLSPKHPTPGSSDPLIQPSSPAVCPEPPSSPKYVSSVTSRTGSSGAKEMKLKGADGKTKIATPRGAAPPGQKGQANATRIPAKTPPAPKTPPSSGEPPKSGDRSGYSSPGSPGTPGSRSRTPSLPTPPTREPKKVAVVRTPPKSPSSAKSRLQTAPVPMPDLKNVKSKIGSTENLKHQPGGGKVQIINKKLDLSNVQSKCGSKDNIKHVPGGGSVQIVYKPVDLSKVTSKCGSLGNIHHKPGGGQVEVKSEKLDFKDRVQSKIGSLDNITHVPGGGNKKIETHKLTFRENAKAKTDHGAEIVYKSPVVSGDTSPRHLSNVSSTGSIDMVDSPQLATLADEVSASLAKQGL
Summary of the method: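 Fibril formation assay: tau K18 P301L at 15 uM with trace Alexa 594 label, heparin inducer 20 uM, pH 7 sodium acetate buffer, 37 C for 6 hr; endpoint ThT signal.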
Note: nearly all actives have a fitted effect of over 55% in size.
Potency is the fitted concentration of half-maximal effect; tags give direction and shape of the fitted curve.

Which Potency does the source give for `COc1cc(OC)c(OC)cc1CNCCCSc1nnnn1C` here?
The Potency was “inactive”.

How did the Potency turn out when `Nn1c(SCC(=O)Nc2ccc3c(c2)OCO3)nnc1-c1ccc(Cl)cc1` was run?
The Potency was inconclusive: 3.55 µM [inhibitor, full curve].

With `CCc1ccc(OCc2cc(=O)n3cc(C)sc3n2)cc1` as the compound, how does the Potency read?
The Potency was inconclusive: 2.24 µM [inhibitor, full curve, poor fit].

With `COc1ccccc1NC(=S)N/N=C/c1ccc(O)cc1` as the compound, how does the Potency read?
Its Potency is inconclusive: 15.8 µM [inhibitor, partial curve].

`COC(=O)C1CCN(c2csc3ccc(Cl)cc3c2=O)CC1` was tested. Which Potency did it give?
The Potency was inconclusive: 14.1 µM [inhibitor, partial curve].

How did the Potency turn out when `COc1ccccc1N1CCN(C(=O)c2cc(C)oc2C)CC1` was run?
The Potency was inconclusive: 22.4 µM [inhibitor, single point].

For `CCCOc1ccc(CNC(=O)CN2C(=O)c3cccnc3Oc3ccc(C)cc32)cc1`, which Potency is on record?
The Potency was “inactive”.

`COc1ccc(C(=O)c2ccccc2)c(O)c1O` was tested. Which Potency did it give?
Its Potency is inconclusive: 7.94 µM [inhibitor, partial curve].

How did the Potency turn out when `CCC(=O)Nc1ccc(C(=O)NNC(=O)COc2cc(C)ccc2C)cc1` was run?
The Potency was inconclusive: 6.31 µM [inhibitor, single point].

How did the Potency turn out when `Cc1cc([N+](=O)[O-])ccc1NC(=O)/C=C/c1cccs1` was run?
The Potency was inconclusive: 2.82 µM [inhibitor, full curve].

`CC(C)=C1SC(N2CCN(c3cccc(Cl)c3)CC2)=NC1=O` was tested. Which Potency did it give?
Its Potency is inconclusive: 2.24 µM [inhibitor, full curve].

How did the Potency turn out when `C/C=C/c1ccc(OCCOc2ccc(C=O)cc2)c(OC)c1` was run?
The Potency was inconclusive: 14.1 µM [inhibitor, partial curve].

For `CCCn1nnc(NC(=O)c2ccc(OCC)c(Cl)c2)n1`, which Potency is on record?
The Potency was inconclusive: 20 µM [inhibitor, single point].

Which Potency does the source give for `COc1cc(-c2nnc(SCC(=O)c3ccc(C)cc3)o2)cc(OC)c1OC` here?
Its Potency is “inactive”.

Which Potency does the source give for `O=C(Nc1cccnc1)Nc1ccc(Br)cc1Cl` here?
The Potency was “inactive”.

How did the Potency turn out when `Cn1ncc2c(NCc3ccc(F)cc3)ncnc21` was run?
Its Potency is “inactive”.

How did the Potency turn out when `CCOC(=O)c1c(S(=O)(=O)N2CCC(C(=O)N3CCN(c4ccc(F)cc4)CC3)CC2)c(C)n(C)c1C` was run?
Its Potency is “inactive”.

Which Potency does the source give for `S=C(Nc1ccccc1)Nc1ccc(Br)cc1` here?
The Potency was inconclusive: 39.8 µM [activator, single point].

Which Potency does the source give for `COc1ccc(-c2ccc(=O)n(CC(=O)Nc3ccc(OC)c(OC)c3)n2)cc1` here?
The Potency was “inactive”.

For `O=C(CCc1ccc(S(=O)(=O)N2CCOCC2)cc1)N/N=C/c1ccc(O)c(O)c1O`, which Potency is on record?
Its Potency is active: 25.1 µM.

Which Potency does the source give for `O=S(=O)(Nc1cccc(Cl)c1)c1ccc2oc(=S)[nH]c2c1` here?
The Potency was “inactive”.

`COCCNC(=O)C1=CC(c2ccc3c(c2)OCO3)=NS(=O)(=O)N1C` was tested. Which Potency did it give?
The Potency was “inactive”.

With `O=c1c(O[C@@H]2O[C@H](CO)[C@H](O)[C@H](O)[C@H]2O)c(-c2ccc(O)c(O)c2)oc2cc(O)cc(O)c12` as the compound, how does the Potency read?
The Potency was inconclusive: 31.6 µM [inhibitor, single point].

Which Potency does the source give for `CCn1c2ccccc2c2cc(NC(=O)c3cccc(OC)c3)ccc21` here?
Its Potency is inconclusive: 4.47 µM [inhibitor, full curve].

For `CC(C)Oc1ccc(CNC(=O)Cn2nc(N3CCN(c4ccccc4)CC3)ccc2=O)cc1`, which Potency is on record?
Its Potency is inconclusive: 28.2 µM [inhibitor, single point].

For `Cn1c(-c2ccc(C=O)s2)nc2c3ccccc3c3ccccc3c21`, which Potency is on record?
Its Potency is inconclusive: 5.01 µM [inhibitor, partial curve].

`CCCN(C/C=C/I)C1CCc2cccc(O)c2C1` (stereo not given) was tested. Which Potency did it give?
The Potency was “inactive”.

How did the Potency turn out when `N#C/C(=C(/O)c1cccs1)c1nc2ccccc2[nH]1` was run?
The Potency was inconclusive: 14.1 µM [inhibitor, partial curve, poor fit].

How did the Potency turn out when `CC(=O)c1ccc(NC(=O)COCc2cc(-c3ccc(F)cc3)on2)cc1` was run?
The Potency was inconclusive: 1.12 µM [inhibitor, full curve, poor fit].

Which Potency does the source give for `COc1cccc(NS(=O)(=O)c2ccc3[nH]cc(C(=O)N4CCCC4)c(=O)c3c2)c1` here?
The Potency was “inactive”.

`Cc1cc(NC(=O)c2ccc(NC(=O)CCS(=O)(=O)c3cccs3)cc2)ccc1Br` was tested. Which Potency did it give?
The Potency was inconclusive: 7.94 µM [activator, full curve, poor fit].

For `CCCCCCN1C2=NCCN2c2ccccc21`, which Potency is on record?
The Potency was “inactive”.

For `Cc1cc2c(cc3c(SCc4ccccc4Cl)nnc(C)n32)o1`, which Potency is on record?
The Potency was inconclusive: 20 µM [inhibitor, partial curve].

With `COC(=O)c1c(NC(=O)COC(=O)c2ccc(O)cc2)sc2c1CCCCC2` as the compound, how does the Potency read?
Its Potency is “inactive”.

How did the Potency turn out when `O=C(NCc1ccco1)C1CCN(C(=O)c2cc3sccc3n2Cc2ccc(F)cc2)CC1` was run?
Its Potency is inconclusive: 39.8 µM [inhibitor, single point].

`CCN1C(=O)/C(=c2\sc3nc(=O)c(Cc4ccccc4)nn3c2=O)c2ccccc21` was tested. Which Potency did it give?
The Potency was active: 20 µM.

How did the Potency turn out when `NC(=S)N1CCCc2ccccc21` was run?
Its Potency is “inactive”.

Which Potency does the source give for `O=C(/C=C/c1ccc([N+](=O)[O-])cc1)NCCN1C(=O)S/C(=C\c2ccc(F)cc2)C1=O` here?
The Potency was inconclusive: 0.794 µM [inhibitor, full curve].

With `OCCNc1c2ccccc2nc2c(F)c(F)c(F)c(F)c12` as the compound, how does the Potency read?
Its Potency is inconclusive: 7.08 µM [inhibitor, partial curve].

`COCCN(C(=O)C1CC1)c1nnc(-c2ccc(C)cc2)s1` was tested. Which Potency did it give?
The Potency was “inactive”.

`COc1cc(C(C)=O)ccc1COc1ccc(C(=O)OCC(=O)NC2CCS(=O)(=O)C2)cc1OC` (stereo not given) was tested. Which Potency did it give?
Its Potency is inconclusive: 12.6 µM [inhibitor, partial curve, poor fit].

For `O=C(Nc1ccc(C(F)(F)F)cc1)C(Cc1ccccc1)n1cccc1` (stereo not given), which Potency is on record?
Its Potency is “inactive”.

With `CC(C)C[C@H](NC(=O)c1nc[nH]c1C(=O)NC1CCN(C(=O)OC(C)(C)C)CC1)C(=O)OC(C)(C)C` as the compound, how does the Potency read?
The Potency was inconclusive: 39.8 µM [inhibitor, single point].

Which Potency does the source give for `Cc1ccc(-c2csc(NC(=O)Cn3[nH]c(=O)c4ccccc4c3=O)n2)cc1` here?
The Potency was inconclusive: 5.62 µM [inhibitor, partial curve].

`Cc1ccc(NCc2nnc(SCC(=O)NNC(=O)Cc3ccccc3)n2C)cc1` was tested. Which Potency did it give?
The Potency was “inactive”.

With `O=C(CCCCn1c(=O)[nH]c2ccsc2c1=O)NCC1CCCO1` (stereo not given) as the compound, how does the Potency read?
The Potency was “inactive”.

For `COc1ccc(OCC(=O)Nc2ccc(-c3nc4cc(C)c(C)cc4o3)cc2)cc1`, which Potency is on record?
The Potency was inconclusive: 0.158 µM [inhibitor, full curve].

With `COc1ccccc1-c1nnc2sc(-c3cc4ccccc4o3)nn12` as the compound, how does the Potency read?
The Potency was inconclusive: 15.8 µM [inhibitor, single point].

`CC(=O)Nc1cccc(-c2nc3ccc(NC(C)=O)cc3s2)c1` was tested. Which Potency did it give?
Its Potency is inconclusive: 39.8 µM [activator, single point].

For `O=c1c2c(-c3cccs3)csc2ncn1/N=C/c1ccc(OC(F)F)cc1`, which Potency is on record?
Its Potency is “inactive”.

`COc1cc(NC(=O)Cn2nc3c(cc2=O)CC(C)CC3)cc(OC)c1OC` (stereo not given) was tested. Which Potency did it give?
The Potency was “inactive”.

How did the Potency turn out when `N#C/C(=C(/O)Cc1ccccc1)P(=O)(c1ccccc1)c1ccccc1` was run?
The Potency was “inactive”.

`O=S(=O)(Oc1ccc(Cl)cc1)c1cccc2cccnc12` was tested. Which Potency did it give?
The Potency was “inactive”.

How did the Potency turn out when `O=C(OCC(=O)N1CCc2ccccc21)c1cccnc1` was run?
Its Potency is inconclusive: 7.08 µM [inhibitor, partial curve].

With `Cc1nn(-c2ccccc2)c2c1C(c1ccc([N+](=O)[O-])cc1)C(C#N)=C(N)O2` (stereo not given) as the compound, how does the Potency read?
Its Potency is inconclusive: 15.8 µM [inhibitor, partial curve].

`CCOc1ccccc1N1CCN(C(=O)CCCN2C(=O)c3cccc4cccc(c34)C2=O)CC1` was tested. Which Potency did it give?
The Potency was inconclusive: 15.8 µM [inhibitor, partial curve].

With `CC1CCCCN1C(=O)CSc1nnc(-c2c[nH]c3ccccc23)o1` (stereo not given) as the compound, how does the Potency read?
The Potency was “inactive”.

How did the Potency turn out when `O=c1c2c(nc3cc(-c4cccc(Cl)c4)[nH]n13)CCC2` was run?
The Potency was inconclusive: 6.31 µM [inhibitor, partial curve].

How did the Potency turn out when `O=C(Nc1cccc(-c2cn3cccnc3n2)c1)c1cccs1` was run?
The Potency was inconclusive: 7.94 µM [inhibitor, single point].

`CCC(C(=O)NC1CCCC1)N(C(=O)Cn1nnc(-c2ccc(C)o2)n1)C(C)(C)C` (stereo not given) was tested. Which Potency did it give?
Its Potency is “inactive”.

For `O=C(NC1CCCC1)C(c1ccncc1)N(Cc1ccccc1)C(=O)c1ccc(-c2ccccc2)[nH]1` (stereo not given), which Potency is on record?
The Potency was “inactive”.

`COC(=O)c1ccc(-c2noc(CN3CCCCC3c3nccn3C)n2)cc1` (stereo not given) was tested. Which Potency did it give?
Its Potency is “inactive”.

Which Potency does the source give for `Cc1cccc2nc(COc3ccc(-c4ccccc4)cc3)cn12` here?
The Potency was inconclusive: 1.58 µM [inhibitor, full curve].

Which Potency does the source give for `COc1ccc(C2N(c3cc(Cl)ccc3OC)C(=O)C3CCCN32)c(OC)c1` (stereo not given) here?
The Potency was “inactive”.

With `C/C(=N/N1CCN(c2ccccn2)CC1)c1cccc([N+](=O)[O-])c1` as the compound, how does the Potency read?
Its Potency is inconclusive: 14.1 µM [inhibitor, partial curve].

How did the Potency turn out when `Cc1nonc1NC(=O)CSc1nc2c(C)cccc2cc1C#N` was run?
The Potency was inconclusive: 2 µM [inhibitor, full curve].

`COc1ccc(C(=O)NNc2ccccc2)cc1OC` was tested. Which Potency did it give?
The Potency was inconclusive: 39.8 µM [inhibitor, single point].

How did the Potency turn out when `CN1C(=O)C(CC(=O)O)S/C1=N\N=C\c1ccc(O)cc1O` (stereo not given) was run?
The Potency was “inactive”.

`COc1ccc(/C=N/NC(=O)c2nc(-c3ccccc3)n(-c3ccccc3)n2)c(O)c1` was tested. Which Potency did it give?
Its Potency is inconclusive: 15.8 µM [inhibitor, single point].

`CCCCOC(=O)C(C#N)c1nc2ccccc2nc1N1CCOCC1` (stereo not given) was tested. Which Potency did it give?
Its Potency is inconclusive: 25.1 µM [inhibitor, partial curve].

`COC(=O)c1c(NC(=O)CC2SC(N)=NC2=O)sc2c1CCCC2` (stereo not given) was tested. Which Potency did it give?
Its Potency is “inactive”.

How did the Potency turn out when `CCSc1nnnn1-c1ccccc1` was run?
Its Potency is “inactive”.

Which Potency does the source give for `CCc1cccc(CC)c1NC(=O)COC(=O)c1ccccc1-c1nc2ccccc2s1` here?
Its Potency is “inactive”.

`Cc1ccc(NC(=O)c2c(NC(=O)C(F)(F)F)sc3c2CCCCC3)cc1` was tested. Which Potency did it give?
The Potency was active: 14.1 µM.

For `O=C(Cn1c(-c2cccs2)cc2ccccc21)NCCCN1CCN(c2ccccc2F)CC1`, which Potency is on record?
Its Potency is inconclusive: 8.91 µM [inhibitor, partial curve].

From PubChem BioAssay AID1460 (National Center for Advancing Translational Sciences (NCATS), 2008)
